Whole data set: some 110,000 compounds, median “z-score” near -0.1, cut for the highest 2% near 2. The list shows a part of the results.
Biological target: Metabotropic glutamate receptor 8 (Rattus norvegicus) (UniProt P70579)
Assay: rat mGluR8 modulators via GIRK flux, primary screen, cell-based, thallium flux, HTS (AID 488969)
Conditions: HEK293 rat mGluR8, GIRK (G protein-gated inwardly rectifying potassium channel) thallium flux, FluoZin2; at 10 µM; stronger effect = higher value; submaximal glutamate (EC20) added with thallium

Chain of UniProt P70579 (P70579 whole entry, looked up): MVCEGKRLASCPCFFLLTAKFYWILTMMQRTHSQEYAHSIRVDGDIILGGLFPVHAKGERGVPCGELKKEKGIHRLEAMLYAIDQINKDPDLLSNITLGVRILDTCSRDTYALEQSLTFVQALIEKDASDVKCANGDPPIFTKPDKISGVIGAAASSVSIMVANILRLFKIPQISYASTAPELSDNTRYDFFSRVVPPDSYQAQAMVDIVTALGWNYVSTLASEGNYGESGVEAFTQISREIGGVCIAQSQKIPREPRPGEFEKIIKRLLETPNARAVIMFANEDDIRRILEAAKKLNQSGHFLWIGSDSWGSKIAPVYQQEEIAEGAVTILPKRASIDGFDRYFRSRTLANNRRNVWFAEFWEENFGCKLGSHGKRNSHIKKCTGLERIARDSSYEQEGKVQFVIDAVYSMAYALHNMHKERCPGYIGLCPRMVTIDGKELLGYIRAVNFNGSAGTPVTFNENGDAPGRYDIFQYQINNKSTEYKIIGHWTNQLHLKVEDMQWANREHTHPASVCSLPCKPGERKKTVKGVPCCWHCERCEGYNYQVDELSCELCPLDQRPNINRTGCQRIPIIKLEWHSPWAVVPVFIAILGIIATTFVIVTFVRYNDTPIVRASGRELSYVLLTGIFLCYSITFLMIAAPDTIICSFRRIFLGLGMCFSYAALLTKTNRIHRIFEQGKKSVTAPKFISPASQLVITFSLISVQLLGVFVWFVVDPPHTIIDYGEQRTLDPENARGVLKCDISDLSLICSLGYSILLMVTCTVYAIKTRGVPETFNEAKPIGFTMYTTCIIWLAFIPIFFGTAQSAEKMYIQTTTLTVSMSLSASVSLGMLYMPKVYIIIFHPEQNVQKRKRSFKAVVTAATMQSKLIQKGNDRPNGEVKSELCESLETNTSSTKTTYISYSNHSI

| Compound | z-score |
| --- | --- |
| Cc1ccc(OC(=S)Nc2ccc(F)cc2)cc1 | 0.0616 |
| Cc1cc(C)c(S(=O)(=O)N2CCC(C(=O)NCc3ccco3)CC2)c(C)c1 | 0.126 |
| CCOC(=O)Cn1c(=O)oc2cc(S(=O)(=O)N3CCn4c3nc3ccccc34)ccc21 | -0.511 |
| O=C(CCCc1ccccc1)NCCCN1CCOCC1 | -0.391 |
| Cc1ccc(NC(=S)NNC(=O)c2cn(C)nc2C)cc1 | 0.188 |
| CO/N=C\Cc1oc(=O)c(NC(=O)c2ccccc2)cc1C(=O)OC | 0.0797 |
| O=C(Cc1c(F)cccc1Cl)Nc1ccon1 | 0.178 |
| COCCn1c(SCc2nc3cc(OC)c(OC)cc3c(=O)[nH]2)nnc1-c1ccncc1 | 0.216 |
| CCCCc1nnc(SCCSc2nnc(CCCC)n2N)n1N | 0.0292 |
| O=C(c1noc2c1CCc1ccccc1-2)N1CCOCC1 | -0.0455 |
| CC(C)(C)NC(=O)c1ccc(COCC(F)(F)F)o1 | -0.00271 |
| COc1ccccc1NC(=O)c1ccccc1NS(=O)(=O)N1CCCC1 | 0.14 |
| CCCCSc1nc2c(c(C(F)(F)F)c1C#N)CCC2 | -0.216 |
| CCOc1cc(CNc2ccc3c(c2)CCC3)ccc1O | 0.557 |
| Cc1ccc(C(=O)Nc2sc(C)c(-c3ccccc3)c2C(N)=O)cc1[N+](=O)[O-] | -0.0229 |
| O=C(NCCN1C(=O)S/C(=C\c2cccs2)C1=O)c1ccc(=O)[nH]c1 | -0.18 |
| COc1ccc2c(Cl)c(C(=O)N/N=C/c3c(C)[nH]c4ccccc34)sc2c1 | -0.0415 |
| COc1ccc(CNC(=O)c2noc3c2CCCC3)cc1 | 0.719 |
| COc1cccc(C2Nc3ccccc3C(=O)N2O)c1O (centres undefined) | 0.356 |
| CC(=O)c1ccc(N2C(=O)[C@@H]3C(CCC(N)=O)NC4(C(=O)Nc5c4ccc(Cl)c5C)[C@@H]3C2=O)cc1 (some centres undefined) | -0.21 |
| CCOC(=O)c1c(-n2cccc2)sc2c1CCCC2=O | -0.189 |
| COc1ccc(C(=O)Cc2cc(OC)c(OC)cc2[N+](=O)[O-])c(OC)c1 | -0.225 |
| COc1cc(NC(C(=O)Nc2cccc(C(C)=O)c2)c2ccccc2)cc(OC)c1OC (centres undefined) | 0.756 |
| CC(C)(C)n1nnnc1C(c1cccnc1)N1CCN(C2CCCCC2)CC1 (centres undefined) | -0.342 |
| CC(=O)Nc1c(O)nc(SCC(=O)Nc2nnc(CC(C)C)s2)[nH]c1=O | 0.707 |
| COCCNC(=O)c1onc(CCl)c1C(=O)OC | -0.0292 |
| CCOC(=O)C1=C(C)OC(N)=C(C#N)C1c1cc(Cl)c(OCC(N)=O)c(OC)c1 (centres undefined) | -0.0226 |

| Compound | z-score |
| --- | --- |
| CCNC(=S)NNC(=O)c1cc(-c2ccccc2C)nc2ccccc12 | -0.0901 |
| Cn1nc(C(=O)N2CCc3ccccc3C2)c2ccccc2c1=O | 0.303 |
| COc1ccc(S(=O)(=O)NCc2ccccn2)cc1 | -0.0108 |
| COc1ccccc1CNC(=O)C1CCN(S(=O)(=O)c2ccc3c(c2)OCCCO3)CC1 | 0.126 |
| O=C(NC1CCCC1)C(c1ccc(F)cc1)N(C(=O)Cc1cccs1)c1ccc2c(c1)OCCO2 (centres undefined) | -0.106 |
| COc1cccc(CNC(=O)C2CCN(S(=O)(=O)c3ccc4c(c3)CCC(=O)N4)CC2)c1 | -0.153 |
| COc1ccc(C(C)=O)cc1CSCCC#N | 0.06 |
| COc1cc(C(=O)N2CCC(NC(=O)C(Cc3ccc(C)cc3)NC(C)=O)CC2)cc(OC)c1OC (centres undefined) | 0.166 |
| COC(=O)C1C(c2ccc(Cl)cc2)NC(c2ccc(Cl)cc2)C(C(=O)OC)S1(=O)=O (centres undefined) | -0.0837 |
| CCOc1ccccc1NC(=O)C1Cc2ccccc2CN1S(C)(=O)=O (centres undefined) | -1.31 |
| COc1ccccc1CNC(=O)CCn1c(=O)oc2ccccc21 | -0.208 |
| COC(=O)C1CCN(C(=O)C23CCC(C)(C(=O)O2)C3(C)C)CC1 (centres undefined) | 0.293 |
| COC(=O)c1cc(NC(=O)c2nccnc2C(=O)O)cc(C(=O)OC)c1 | 1.91 |
| COc1ccc(N2C(=O)C3CCCN3C2c2cccc(Br)c2)cc1 (centres undefined) | 0.243 |
| CCCNC(=O)c1cc(C)no1 | -0.107 |
| O=C(O)CNS(=O)(=O)c1cccc2nsnc12 | 0.0928 |
| CCn1c(/C=N/Nc2ccc(C(=O)O)cc2)nc2ccccc21 | -0.629 |
| Brc1ccc2c(c1)OCCOCCOCCOCCOCCO2 | -0.299 |
| COc1ccc(-c2cc(C(=O)N3CCOCC3)c3cc(C)ccc3n2)cc1 | 0.148 |
| O=C(N1CCOCC1)N1c2ccccc2Sc2ccccc21 | -0.454 |
| O=C(Cn1cnc2ccccc2c1=O)NCCC(=O)Nc1ccc2c(c1)OCCO2 | -0.00198 |
| O=S(=O)(Nc1ccc(O)cc1)c1cccc2cccnc12 | -0.332 |
| COc1cc(C)c(S(=O)(=O)n2ccc(C)n2)cc1C | -0.144 |
| O=C(CSc1n[nH]c(-c2ccc(S(=O)(=O)NC3CCCCC3)cc2)n1)N1CCCC1 | -0.42 |
| COc1cc(Cn2ccnc2)c(OC)cc1Cn1ccnc1 | -0.198 |
| Cc1ccoc1C(=O)Nc1cccc(Oc2ccccc2)c1 | -1.42 |
| O=C(c1ccc(COc2ccccc2Cl)o1)N1CCN(c2ccccc2)CC1 | -0.0947 |

Source: PubChem BioAssay AID488969 (Vanderbilt High Throughput Screening Facility, 2010)
